# Test results as given in the supplement of paper PMC10185492.
# The list shows a part of the results. These are enrichments in a pooled selection; single values are uncertain.
# Tested on: SARS-CoV-2 3CLpro (nsp5)
# Assay: substrate phage enrichment score (protease-eluted vs HEPES control, +1 offset) (ratio); higher = better cleaved substrate
# Conditions: selection round: 4; protease elution time: 15 min
# Protocol: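 Random heptapeptide substrate phage display (M13 pIII fusion, heptapeptide between an N-terminal biotinylated AviTag GLNDIFEAQKIEWHE and pIII; phages immobilised on streptavidin) eluted by cleavage with 50 nM protease in 20 mM HEPES at 37 °C. Selected phages were NGS sequenced, and the enrichment score is (reads in protease sample + 1)/(reads in HEPES blank-selection control + 1).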
row,Substance,substrate phage enrichment score
1,AHSQCLQ,11.5
2,CYRPVPR,2.11
3,KTKSECT,1.45
4,IETEDVT,> 126
5,SAAAPQH,1.83
6,SSWPPEG,> 40
7,WQHHDGK,> 51
8,PDFQGGS,1.02
9,DRSRTES,0.909
10,WHTTRTT,3.33
11,HCLKDMA,1.71
12,YQLHYVD,1.59
13,QVEPAGG,5.5
14,CHREKNS,11
15,RLPFQGG,2.29
16,SHKPRPH,2.29
17,AHPARCS,> 26
18,SSACWRS,1.65
19,SQGTQEN,> 22
20,KAMPNLT,1.75
21,NFHPKLG,1.33
22,VIEKPYH,> 28
23,PTAETDP,> 37
24,SAAAHPH,1.06
25,DVAAHHH,0.581

row,Substance,substrate phage enrichment score
1,QLPRMTQ,> 21
2,CNHPMKV,1.33
3,SVPSHIS,> 22
4,SGNYGSL,> 22
5,HGNEVSD,1.45
6,KERLSSS,> 31
7,TRSSGEQ,1.64
8,QRPAPIT,10.8
9,THFQGGS,1.73
10,NDNPKNR,0.135
11,NNYSVQG,1.87
12,CKDVRSK,0.0606
13,GVALESS,> 28
14,RSPSLLQ,> 92
15,PCTVTMQ,> 87
16,SHREEYQ,> 145
17,RKEVQMQ,39.2
18,WSAAHHH,0.919
19,RFNTTTR,2.88
20,ASSPQQH,> 29
21,PQWTQSC,5
22,SAAAQQN,1.83
23,LKQNLSP,0.871
24,KGAPCTV,3.29
25,VLSQMPN,0.476

row,Substance,substrate phage enrichment score
1,TNHPTLT,> 79
2,TRKPHLG,0.8
3,PALLNSG,9.54
4,PNTASPF,0.316
5,RKEQYLP,> 22
6,GPTIRTQ,> 27
7,SDFQGGS,1.58
8,ESLRKQY,> 32
9,SSTANLQ,> 24
10,KGTLRPV,4.38
11,YGRQSLS,0.0909
12,HEIQITK,> 35
13,EPGTAQH,3.6
14,ANNTTLQ,> 28
15,KSQKFDV,1.29
16,RKCSETP,0.636
17,KSLAQCQ,8
18,EEADPER,0.0766
19,VRPHIIN,0.929
20,TDVMDQE,0.0408
21,SASTSNR,> 29
22,IKRPPST,2.56
23,VTRSRLC,8.33
24,QSGDATD,4.33
25,QADGTAV,16

row,Substance,substrate phage enrichment score
1,EIRHCRD,0.778
2,SCDEQHT,> 84
3,TWPQGTE,0.316
4,DVRPWYQ,> 26
5,CPEMQAM,> 26
6,EGPSAMV,6
7,SPNTKNR,2.65
8,DVKLEMR,> 22
9,RNQTPET,19.7
10,VCPQVKN,2.43
11,SQTKAGS,> 29
12,KSTAAHH,0.636
13,AQRAKLQ,> 21
14,TRQRPAP,6
15,AAQLQGV,> 32
16,CRVSQPG,> 43
17,PTAKPHP,4.25
18,PYFQGGS,1.12
19,RSNLNGR,0.455
20,TASNETD,0.467
21,YASQPDV,0.75
22,RALRDQQ,1.88
23,QWMERCE,0.6
24,SVSPESH,> 55
25,QSPVRLQ,41.3

row,Substance,substrate phage enrichment score
1,ELVEDPV,0.826
2,RQGTLPI,0.667
3,TKKCLLQ,> 46
4,QDTAIPT,> 30
5,RGRTILQ,> 486
6,VRTGTKL,6.5
7,RVCFPVN,> 23
8,LNCELGR,7.75
9,PCDKGTA,24
10,YGSSKEP,> 21
11,SKTILLQ,> 191
12,FNPVIGH,> 33
13,ELHCHSA,> 25
14,GNSCQAI,3.4
15,TSSPRVM,> 40
16,VSTSKQH,4.14
17,WAPTTPL,> 43
18,SNTRSPK,1.62
19,ISAAHHH,0.8
20,KHKSWCN,1.78
21,QWGLAEK,> 92
22,SYTRYGF,1.2
23,AVQVSHP,1.29
24,SCAAHHH,1.14
25,YTEGYHH,> 44

row,Substance,substrate phage enrichment score
1,SSKSTVT,> 39
2,LSDQNTP,0.13
3,NRGTSET,> 23
4,VHQWDQQ,> 21
5,GRSANAP,0.261
6,ESDTSKA,5
7,ARMPLMM,> 29
8,NLPVRLQ,> 861
9,SQQNAPL,0.756
10,NAGPRHC,0.4
11,HNLSEGY,1.3
12,LMRSTLQ,13
13,EQQAQTT,0.935
14,HVDRNGQ,1.33
15,TTNNWKA,1.55
16,SGNDEPV,0.562
17,AVREKSD,18
18,HQSELRM,10
19,IQTKNTR,> 53
20,SDNWMTG,> 29
21,DPNVLMH,6.4
22,NASAEMS,> 47
23,TKNKEAG,0.952
24,GFNTDLR,> 23
25,NSHDASR,3.71

row,Substance,substrate phage enrichment score
1,HSAAHHH,1.56
2,VYMESRQ,> 28
3,KPSRDLP,2.57
4,TPKKGLK,0.345
5,TATGTVG,0.541
6,RSCIIVT,0.673
7,QEAAHHH,0.239
8,RQSSRLS,1.85
9,HFRPCKR,> 24
10,SPFPLSV,> 23
11,RINDAPG,4.5
12,QNQKAME,> 22
13,RATAHHH,0.545
14,NWQRTMP,> 57
15,KTEYFQG,> 26
16,TEIPETR,> 34
17,PLRCYLY,> 47
18,VCSDARS,0.917
19,ARLEIGP,> 21
20,SASAHHH,0.8
21,HIKLKPQ,1.73
22,GRCNWSN,> 37
23,GCTAAHH,7
24,RGDCARG,> 39
25,ERVTLQC,> 109

row,Substance,substrate phage enrichment score
1,EQKPTPC,> 49
2,DRNAAAH,> 29
3,SEPPCPL,4.4
4,SSVTHAP,> 27
5,CLMDPTT,> 27
6,CSLEGRT,> 21
7,PSHATHG,> 41
8,WCLPSLQ,17.5
9,YSSQGGS,2.92
10,LQIQKDG,3.14
11,SSPAAHH,1.62
12,SAGSSWT,2.9
13,MSKSETW,0.625
14,STSHGAT,> 67
15,HQSKSPD,> 50
16,TLQKIRQ,1
17,RATAAPH,2.55
18,CNHELTG,4.5
19,NQHHTPQ,0.5
20,PGNHHHH,3.43
21,YGCESKK,> 34
22,AMNQPNP,> 23
23,KFLTPWQ,0.227
24,WVGADKN,0.448
25,RQSLHSV,10

row,Substance,substrate phage enrichment score
1,TGSCTLQ,> 98
2,ANRPHFQ,> 28
3,SPLQPRG,> 30
4,DITWSKD,5
5,SRPGSNR,> 45
6,DPINQTT,2.32
7,HITDPMT,> 24
8,LRSGTTI,3.82
9,CRQSGSA,> 36
10,TPEYSAR,> 25
11,VGTWKGA,> 44
12,KRSWRDQ,> 21
13,GRKQCPQ,4.5
14,KHAEFTR,> 85
15,REVISDG,1.67
16,CGACDAS,4.55
17,PLTKNCV,> 32
18,YVSGSNY,1.12
19,AAPWVPW,1.17
20,LSCASAA,> 22
21,QSKAEYA,3.6
22,AQYFQGG,3.48
23,RAAAHHH,0.773
24,GPVRERP,3.87
25,GVLICRR,> 47

row,Substance,substrate phage enrichment score
1,APNECMS,34
2,AKKKPLQ,> 32
3,CRDSGQQ,0.917
4,NGALPTF,2.71
5,LTEDPTR,0.0741
6,YVHESSL,2.13
7,AHAQSEA,> 95
8,KNWACTD,2.43
9,QGWRKPR,> 73
10,TLRGTEG,> 39
11,TRINSHG,10.7
12,NWISPPS,> 33
13,PQHETNH,0.2
14,AELPCLQ,> 28
15,VWPHIII,0.769
16,SDWKLKD,7
17,TKCSNFR,5
18,CSPRLYR,0.718
19,SAAAQNH,1.51
20,QYLQARG,> 30
21,NKTQSRN,3.27
22,LPDRNSE,> 44
23,DILTGRC,4.75
24,CASFQAV,> 21
25,YGDRDDS,19.5

row,Substance,substrate phage enrichment score
1,KESKPPK,> 40
2,IGMESDH,1.38
3,AECGQAK,> 28
4,ATNVILQ,71.5
5,PISEPPN,0.917
6,RAAETVP,0.737
7,PNCALPY,> 123
8,HAQTKNP,> 33
9,GLTPNSA,0.588
10,RVREAPQ,1.93
11,SVLGGTD,1.33
12,WDTQGTR,1
13,STSAHHH,6.6
14,HRNSDLT,3.54
15,CLQSKEP,> 21
16,TPYSKLQ,1980
17,QLCMPGM,0.208
18,VVVRPHI,0.667
19,EEICRMQ,> 48
20,HVAAHHH,0.517
21,PDARAPR,> 24
22,CYPARRY,> 23
23,TKHGETS,6.25
24,QYQKHST,> 25
25,GDTNARQ,0.333

row,Substance,substrate phage enrichment score
1,KDLPNLQ,> 339
2,KSRPHKG,> 34
3,EAPYKPH,4.41
4,SSIRPPR,0.217
5,SNLAGMN,> 23
6,RPQPAYA,0.08
7,QYNADRP,5
8,ALTCDMP,0.25
9,SPAAHHH,0.888
10,PRPTTQK,12.7
11,AKSLHPD,> 26
12,STLTQDW,> 59
13,HEKCYLQ,> 114
14,EPRSTRG,> 107
15,RVQTLRK,> 41
16,KSKTPST,> 42
17,GHCSHGK,> 43
18,CDASVSA,> 39
19,CPSAHSQ,> 26
20,SKPLKGC,5.44
21,TCIRRDV,2.78
22,SREKSQG,> 208
23,SAMNCES,> 28
24,RCPVASG,> 25
25,LRPHIII,0.895

row,Substance,substrate phage enrichment score
1,CAVECIE,0.0741
2,PNFQGGS,4.96
3,LTGTGYS,> 41
4,VTRSGCH,> 21
5,SQRVGNS,2.12
6,AEFKQPV,> 38
7,EQAKHRI,5.43
8,QVERCRP,> 27
9,HIPGTTE,0.944
10,ARNCVLQ,> 33
11,LRRTELQ,> 21
12,QQYGSEC,> 29
13,LTTSPAS,4.27
14,AVTHLQS,> 31
15,QVRGTIR,1.74
16,HTLLQSQ,> 37
17,VCGREHP,0.32
18,EQMPATG,> 24
19,HRLNSGD,> 22
20,QKTNKNG,5.25
21,QYTETAP,2.33
22,AKEPLYP,0.05
23,ANRWTSR,8.48
24,PVNLSTC,1.64
25,MGDVPDV,28

row,Substance,substrate phage enrichment score
1,VAGDLSG,0.65
2,EGLHDVQ,9
3,RAIGGVA,> 21
4,CRALVED,> 41
5,GLSSGNF,> 41
6,SGRANLT,3.67
7,LEHKEND,0.175
8,SWQEVEN,1
9,VSCPMKH,0.583
10,VRPHIII,0.703
11,NQTVRFH,> 29
12,VCQGGSA,5.5
13,QGSTPTL,1.3
14,TWEQAHR,2.2
15,RNWGRWN,1.65
16,SCTGLCA,6.38
17,AGRQHSW,> 27
18,IQKPCAY,6.43
19,RRQPRLQ,> 26
20,NRLKLPN,1.89
21,VPAHPRT,11
22,ARLNTRN,0.968
23,SRSNIRP,> 25
24,QPLSTQN,> 35
25,RQNTTSE,0.35

row,Substance,substrate phage enrichment score
1,PNSARDV,> 22
2,QFPGTRQ,10
3,TPQQRRP,> 29
4,HPRCYIP,12.5
5,REEVNTR,> 21
6,ATLSKPS,5.2
7,KGADTAE,2.06
8,PLPNARN,4.6
9,LTDKAHR,> 21
10,CNDFSVN,> 28
11,THPDGER,2.15
12,MSAAAHH,3.6
13,KPGARCG,> 406
14,KPAAHHH,0.511
15,SFNSGHG,> 24
16,WPCYRTS,> 46
17,EASQFPS,6
